{"source": "PubChem BioAssay AID1030", "about": "(National Center for Advancing Translational Sciences (NCATS), 2008)", "note": "In all, about 220,000 compounds went through this assay and about 16,000 (7.3%) were called active. Inconclusive means that the source gave no clear call. Such entries were picked first, then a sample of the others. Calls come from the whole dose curve; as a rule, active = well fitted inhibition curve with a large enough effect (not every such curve was filed as active); inconclusive = small, poorly fitted or top-dose-only effect, or another doubt; inactive = no such curve, though single readings can be large or run the other way. No potency is given beside an inconclusive call; the fits are too rough. Potency is the fitted concentration of half-maximal effect; tags give direction and shape of the fitted curve.", "data": [{"target": "Aldehyde dehydrogenase 1A1 (Homo sapiens) (UniProt P00352)", "sequence (P00352 whole entry, looked up)": "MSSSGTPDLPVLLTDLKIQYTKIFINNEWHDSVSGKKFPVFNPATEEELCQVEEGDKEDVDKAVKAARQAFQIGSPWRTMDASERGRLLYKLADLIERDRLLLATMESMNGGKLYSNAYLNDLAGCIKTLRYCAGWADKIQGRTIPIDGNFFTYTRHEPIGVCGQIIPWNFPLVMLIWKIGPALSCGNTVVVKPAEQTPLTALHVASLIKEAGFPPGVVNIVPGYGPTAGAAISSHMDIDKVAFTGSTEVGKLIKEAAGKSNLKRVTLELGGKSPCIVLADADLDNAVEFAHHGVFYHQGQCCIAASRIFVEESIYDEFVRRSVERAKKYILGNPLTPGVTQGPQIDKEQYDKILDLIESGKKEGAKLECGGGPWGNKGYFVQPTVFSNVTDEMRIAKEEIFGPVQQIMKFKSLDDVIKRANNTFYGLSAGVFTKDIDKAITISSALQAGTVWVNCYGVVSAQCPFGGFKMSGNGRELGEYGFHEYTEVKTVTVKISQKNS", "assay": "qHTS Assay for Inhibitors of Aldehyde Dehydrogenase 1 (ALDH1A1);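 for activity, negative = inhibition: plate controls were no enzyme wells and a reference inhibitor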", "settings": "Purified ALDH1A1, NADH fluorescence, propionaldehyde substrate; series mostly up to 75.3 µM", "values": [{"smiles": "O=C(Nc1cccc(-c2cn3cccnc3n2)c1)Nc1ccccc1F", "Potency": "inconclusive [inhibitor, single point]"}, {"smiles": "COC(=O)[C@H]1C[C@@H]1[C@H](NC(=O)c1cc(C)nn1C)c1ccccc1", "Potency": "inconclusive [inhibitor, single point]"}, {"smiles": "O=C(c1ccccc1Cl)N(Cc1ccc(Cl)c(Cl)c1)N1C(=O)CCCC1=O", "Potency": "inconclusive [inhibitor, partial curve]"}, {"smiles": "CC(C)OC(=O)[C@@H]1CC[C@H](C)[C@@H](CCC[C@@H]2CC=C[C@H](CC#N)O2)O1", "Potency": "inactive"}, {"smiles": "c1ccc(CCNc2nc3ccccc3n3nnnc23)cc1", "Potency": "inactive"}, {"smiles": "COC(=O)c1ccc(C(NC(=O)OCc2ccccc2)/C(C)=C/[C@@H](C)C(=O)NC2CCCCC2)cc1", "note": "(stereo not given in full)", "Potency": "inconclusive [inhibitor, single point]"}, {"smiles": "c1ccc(-n2c(SCc3nc(-c4cccs4)no3)nnc2-c2ccco2)cc1", "Potency": "active: 7.08 µM"}, {"smiles": "Cc1nnc(SCC(=O)Nc2nc3c(s2)CC(C)CC3)s1", "note": "(stereo not given)", "Potency": "inconclusive [inhibitor, single point]"}, {"smiles": "CCC(/C=C1\\Sc2ccc(OC)cc2N1CCO)=C\\c1sc2ccc(OC)cc2[n+]1CCO", "Potency": "inconclusive [inhibitor, partial curve]"}, {"smiles": "CC(=O)NC(=S)NNC(=O)COc1ccc([N+](=O)[O-])cc1", "Potency": "active: 22.4 µM"}, {"smiles": "C/C(=N\\NC(=O)c1ccc(Cl)cc1)c1cccc(NC(=O)C(C)C)c1", "Potency": "inconclusive [inhibitor, single point]"}, {"smiles": "COc1cc(NC(=O)Cc2ccc(Cl)cc2)ccc1NC(=O)c1ccco1", "Potency": "inconclusive [inhibitor, single point]"}, {"smiles": "COC(=O)C1C(=O)c2c([nH]c(C(=O)OC3CCCCC3)c2C)CC1C", "note": "(stereo not given)", "Potency": "inactive"}, {"smiles": "COC(=O)c1ccc(-n2c(C)ccc2-c2ccccc2)cc1", "Potency": "inconclusive [inhibitor, partial curve]"}, {"smiles": "O=C(NCC(c1ccco1)N1CCN(c2ccccc2)CC1)c1ccc2c(c1)OCO2", "note": "(stereo not given)", "Potency": "inactive"}, {"smiles": "CCN(CCCn1c(=S)[nH]c2ccc(N3CCOCC3)cc2c1=O)c1ccccc1", "Potency": "inconclusive [inhibitor, single point]"}, {"smiles": "CN(C)C(CNC(=O)NC1CCCCC1)c1cccnc1", "note": "(stereo not given)", "Potency": "inactive"}, {"smiles": "CCN1C(c2ccc(F)cc2)=CS/C1=C(\\C#N)c1nnc2n1-c1ccccc1SC2", "Potency": "active: 12.6 µM"}, {"smiles": "CCS(=O)(=O)N1CCN(Cc2ccccc2OC)CC1", "Potency": "inconclusive [inhibitor, single point]"}, {"smiles": "O=C(NCc1ccco1)c1ccc(COc2ccc(Cl)cc2)cc1", "Potency": "inactive"}, {"smiles": "COCCCNC(=O)C1CCC(CNS(=O)(=O)c2ccc(C)cc2)CC1", "note": "(stereo not given)", "Potency": "active: 11.2 µM"}, {"smiles": "COc1ccc(CNn2c(-c3cccs3)nc3ccccc3c2=O)cc1OC", "Potency": "active: 25.1 µM"}, {"smiles": "CC(=O)Nc1ccc2nc3c(=O)n(C)c(=O)n(C)c3nc2c1", "Potency": "inconclusive [inhibitor, single point]"}, {"smiles": "O=C(NCc1ccccc1Cl)C1CCCN(c2nc3ccsc3c(=O)s2)C1", "note": "(stereo not given)", "Potency": "inactive"}, {"smiles": "CCOc1ccc(N(CC(=O)Nc2ccccc2C(=O)NCc2ccco2)S(C)(=O)=O)cc1", "Potency": "inactive"}, {"smiles": "CCC(=O)Nc1cccc(-c2cn3ccccc3n2)c1", "Potency": "inconclusive [inhibitor, partial curve]"}, {"smiles": "C=CCSC1=NC(N)=C(C#N)C2(CCCCC2)C1C(N)=O", "note": "(stereo not given)", "Potency": "inconclusive [inhibitor, single point]"}, {"smiles": "O=C(CCN1CCCCC1)c1ccc2c(c1)OCCO2", "Potency": "active: 0.1 µM"}, {"smiles": "Oc1ccc(Cl)cc1-c1cc(-c2ccccc2Cl)[nH]n1", "Potency": "inactive"}, {"smiles": "Cc1ccsc1/C=C1/SC(N2CC(C)OC(C)C2)=NC1=O", "note": "(stereo not given)", "Potency": "active: 11.2 µM"}, {"smiles": "Cc1ccccc1-n1ncc2c(SCC(=O)N3c4ccccc4CC3C)ncnc21", "note": "(stereo not given)", "Potency": "active: 14.1 µM"}, {"smiles": "CCn1c(=O)c2ccccc2n2c(SCC(=O)N3CCCc4ccccc43)nnc12", "Potency": "inconclusive [inhibitor, full curve]"}, {"smiles": "COC(=O)Cn1c(C)c(C#N)c2ccccc21", "Potency": "inactive"}, {"smiles": "CCCC(C)C(=O)Nc1nc(C)c(-c2csc(Nc3ccc(Cl)cc3)n2)s1", "note": "(stereo not given)", "Potency": "inconclusive [inhibitor, partial curve]"}, {"smiles": "O=C(O)c1ccccc1C(=O)Nc1ccccc1", "Potency": "inconclusive [inhibitor, single point]"}, {"smiles": "O=C(CSCc1ccccc1)N=Nc1c(O)[nH]c2ccccc12", "Potency": "inconclusive [inhibitor, single point]"}, {"smiles": "COc1ccccc1NS(=O)(=O)c1cc(NC(=O)Nc2cccc(C)c2)ccc1N1CCCCC1", "Potency": "inconclusive [inhibitor, single point]"}, {"smiles": "CCOC(=O)c1ccc(N2CSC3=C(C#N)C(c4ccc(OC)cc4OC)CC(=O)N3C2)cc1", "note": "(stereo not given)", "Potency": "active: 14.1 µM"}, {"smiles": "NC(=O)C1CCN(CCS(=O)(=O)c2ccc(Cl)cc2)CC1", "Potency": "inconclusive [inhibitor, single point]"}, {"smiles": "CCCSc1nc(SCC(=O)NCc2ccccc2)c2c3c(sc2n1)COC(C)(CC)C3", "note": "(stereo not given)", "Potency": "inactive"}, {"smiles": "N#Cc1cccc(NC(=O)N2CCC3(CC2)CCN(C(=O)c2ccco2)CC3)c1", "Potency": "active: 10 µM"}, {"smiles": "Cc1ccc(C)n1-n1cnc2scc(-c3cccs3)c2c1=O", "Potency": "inconclusive [inhibitor, partial curve]"}, {"smiles": "OCCN(CCO)Cc1ccc(Br)cc1", "Potency": "inconclusive [inhibitor, single point]"}, {"smiles": "Cc1ccsc1-c1nc(CSCC(=O)N2CCN(c3ccccc3)CC2)c(C)o1", "Potency": "inconclusive [inhibitor, single point]"}, {"smiles": "CCOC(=O)c1c(C)[nH]c(C)c1C(=O)CSc1nnnn1-c1ccccc1", "Potency": "active: 31.6 µM"}, {"smiles": "N/C(=N\\OC(=O)c1ccco1)c1cccc([N+](=O)[O-])c1", "Potency": "inconclusive [inhibitor, single point]"}, {"smiles": "COCCNc1nc(-c2ccccc2Cl)nc2ccccc12", "Potency": "inactive"}, {"smiles": "O=C1C2C3C=CC(CNS(=O)(=O)c4ccccc4)(O3)C2C(=O)N1c1ccc(Cl)cc1", "note": "(stereo not given)", "Potency": "active: 0.631 µM"}, {"smiles": "Cn1c(=O)c2c(nc(SCC(=O)O)n2Cc2cc3c(cc2Cl)OCO3)n(C)c1=O", "Potency": "active: 35.5 µM"}, {"smiles": "CCOc1ccccc1N=c1oc2cc(O)ccc2cc1C(=O)NCC1CCCO1", "note": "(stereo not given)", "Potency": "inconclusive [inhibitor, partial curve]"}, {"smiles": "c1cncc(CNc2nc(-c3cccnc3)nc3ccccc23)c1", "Potency": "inconclusive [inhibitor, partial curve]"}, {"smiles": "COc1cc(/C=C/C(=O)c2ccc(O)cc2)ccc1OCC#N", "Potency": "inconclusive [inhibitor, single point]"}, {"smiles": "NS(=O)(=O)c1ccc(CNS(=O)(=O)c2ccc(Cl)nc2)cc1", "Potency": "active: 22.4 µM"}, {"smiles": "CC(C)CC(=O)Nc1ccc2oc(-c3ccncc3)nc2c1", "Potency": "inconclusive [inhibitor, single point]"}, {"smiles": "Cc1cc(C)n(-c2ccc(Cl)c(C(=O)O)c2)n1", "Potency": "inconclusive [inhibitor, partial curve]"}, {"smiles": "CC(=O)N=c1n(C)c2ccccc2n1CCOc1ccccc1", "Potency": "inactive"}, {"smiles": "CC1=NN(c2ccc(Cl)cc2)C(=O)C1C(c1ccccc1O)c1c(C)[nH]n(-c2ccc(Cl)cc2)c1=O", "note": "(stereo not given)", "Potency": "active: 7.51 µM"}, {"smiles": "CCCCC/C=C\\C/C=C\\CCCCCCCC(N)=O", "Potency": "inactive"}, {"smiles": "COc1cc(OC)cc(C(=O)N2CCN(Cc3ccccc3Br)CC2)c1", "Potency": "inconclusive [inhibitor, single point]"}, {"smiles": "CC(C)(C)NC(=O)c1ccc2c(c1)C(=O)N(C1CCCCC1)C2=O", "Potency": "active: 2.82 µM"}, {"smiles": "CC1=C(C(=O)OCC(C)C)C(c2ccsc2)C2=C(CCCC2=O)N1", "note": "(stereo not given)", "Potency": "inconclusive [inhibitor, single point]"}, {"smiles": "Cc1ccc(NNC(=O)c2ccno2)cc1Cl", "Potency": "active: 14.1 µM"}, {"smiles": "O=C(CSc1nnc(-c2ccco2)n1-c1ccccc1)N1CCOCC1", "Potency": "inactive"}, {"smiles": "COc1cc(NC(=O)CSc2ncnc3c2cnn3Cc2ccccc2)cc(OC)c1", "Potency": "inconclusive [inhibitor, single point]"}, {"smiles": "COc1ccc(-c2cc(-c3n[nH]c(=S)n3-c3ccccc3Cl)[nH]n2)cc1", "Potency": "inconclusive [inhibitor, partial curve, poor fit]"}, {"smiles": "O=C1C[C@H](c2ccccc2)[C@@H](c2ccc(Br)cc2)O1", "activity, negative = inhibition": "inactive: -7.36% [at 13.5 µM]"}, {"smiles": "COc1ccc(-c2c(-c3ccc(OCC(=O)NN)cc3O)n[nH]c2C)cc1", "Potency": "inconclusive [inhibitor, full curve]"}, {"smiles": "COc1ccc(-c2c3c(=O)n(C)c(=O)n(C)c3cn2NC(C)=O)cc1", "Potency": "inconclusive [inhibitor, single point]"}, {"smiles": "CN1CCN(c2ncc3nc(CCc4ccccc4)c(=O)n(CCc4ccccc4)c3n2)CC1", "Potency": "inconclusive [inhibitor, partial curve]"}, {"smiles": "CC(=O)C1=C(O)C(=O)N(Cc2ccccc2)C1c1cccs1", "note": "(stereo not given)", "Potency": "inactive"}, {"smiles": "CCOc1cc(N2CCOCC2)c(OCC)cc1NC(=O)[C@H](C)N1C(=O)C2CC=CCC2C1=O", "note": "(stereo not given in full)", "Potency": "inactive"}, {"smiles": "CCOC(=O)/C(=N/Nc1ccccc1)c1csc(Nc2ccccc2)n1", "Potency": "inactive"}, {"smiles": "Cc1ccc(C(=O)c2c[nH]c(C(=O)NCc3cccnc3)c2)cc1", "Potency": "inconclusive [inhibitor, partial curve]"}, {"smiles": "C[C@@H]1Cc2ccccc2N1NC(=O)c1ccc(Cl)c(S(N)=O)c1", "note": "(stereo not given in full)", "Potency": "active: 7.94 µM"}, {"smiles": "Cc1cc(CC(C)C)n(-c2nc3ccccc3c(=O)n2OCc2ccccc2)n1", "Potency": "inactive"}]}]}
